Measurements: the supplement of paper PMC7125110
± gives the standard error. Variants at the background level are over-represented here.

B1: glmS ribozyme (parent)
chain: AUAAAAGCGCCAGAACUACAGAAAUGUAGUUGACGAGGAGGAGGUUUAUCGAAUUUUCGGCGGAUGCCUCCAAA

Legend:
Details in all cases: with glucosamine-6-phosphate
glucosamine-6-phosphate [1] = variants of: B1; experiment: self-cleavage kobs at 640 uM GlcN6P; higher = faster cleavage; RNA array
Summary of the method: (§1)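 E. coli RNA polymerase transcribed barcoded ribozyme variants in situ on sequenced MiSeq chips, which were tracked via a hybridised Cy3 probe at 37 °C. Tiles were imaged over ~14 h after glucosamine-6-phosphate (40 μM to 10 mM) in HEPES/KCl/Mg(OAc)2 buffer was flowed in. Normalised per-tile medians were fit to one- or two-exponential decays for kobs, and kcat and KM came from weighted Michaelis–Menten fits.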

glucosamine-6-phosphate [2] = variants of: B1; experiment: self-cleavage kobs at 2500 uM GlcN6P; higher = faster cleavage; RNA array
Summary of the method: as §1

glucosamine-6-phosphate [3] = variants of: B1; experiment: self-cleavage kobs at 10000 uM GlcN6P; higher = faster cleavage; RNA array
Summary of the method: as §1

glucosamine-6-phosphate [4] = variants of: B1; experiment: self-cleavage kobs at 160 uM GlcN6P; higher = faster cleavage; RNA array
Summary of the method: as §1

Row | Variant | self-cleavage kobs at 640 uM GlcN6P (glucosamine-6-phosphate [1]) | self-cleavage kobs at 2500 uM GlcN6P (glucosamine-6-phosphate [2]) | self-cleavage kobs at 10000 uM GlcN6P (glucosamine-6-phosphate [3]) | self-cleavage kobs at 160 uM GlcN6P (glucosamine-6-phosphate [4])
1 | U47G U49C | < 1e-05 s⁻¹ | < 1e-05 s⁻¹ |  | 
2 | A48C G63A | < 1e-05 s⁻¹ | < 1e-05 s⁻¹ |  | 
3 | A48U C58U A64C | < 1e-05 s⁻¹ | < 1e-05 s⁻¹ |  | 
4 | A48U C71U | 0.000153 ± 2.3e-05 s⁻¹ | 0.000338 ± 5.6e-05 s⁻¹ | 0.000461 ± 5.6e-05 s⁻¹ | 
5 | A48U U55C | 0.000116 ± 2.5e-05 s⁻¹ |  |  | 
6 | U49A A64U | < 1e-05 s⁻¹ |  | < 1e-05 s⁻¹ | 
7 | U49A G62A C67G | < 1e-05 s⁻¹ |  |  | 
8 | U49C A64C | < 1e-05 s⁻¹ | < 1e-05 s⁻¹ |  | < 1e-05 s⁻¹
9 | U49C G62U C71G | < 1e-05 s⁻¹ | < 1e-05 s⁻¹ |  | < 1e-05 s⁻¹
10 | U49C U55C | < 1e-05 s⁻¹ | < 1e-05 s⁻¹ |  | 
11 | U49G A64U C67A | < 1e-05 s⁻¹ | < 1e-05 s⁻¹ |  | 
12 | U49G C50G G51A | < 1e-05 s⁻¹ |  |  | 
13 | U49G G62A | < 1e-05 s⁻¹ |  | < 1e-05 s⁻¹ | 
14 | U49G G62U A64C | < 1e-05 s⁻¹ | < 1e-05 s⁻¹ | < 1e-05 s⁻¹ | < 1e-05 s⁻¹
15 | U49G U56A | 0.000105 ± 1.9e-05 s⁻¹ | 0.000173 ± 4.1e-05 s⁻¹ | 0.000466 ± 9.5e-05 s⁻¹ | 
16 | C50A C61G C68G | 6.76e-05 ± 1.9e-05 s⁻¹ |  | 2.92e-05 ± 1.3e-05 s⁻¹ | 
17 | C50G C58U C61U | 0.000479 ± 0.00011 s⁻¹ |  |  | 
18 | C50G G51A G59U C70G | 0.000132 ± 2.9e-05 s⁻¹ | 7.99e-05 ± 2e-05 s⁻¹ |  | 9.16e-05 ± 3.2e-05 s⁻¹
19 | C50G G60C C70A | 0.000161 ± 5.8e-05 s⁻¹ | 5.41e-05 ± 2.7e-05 s⁻¹ |  | 
20 | C50G G63A A64U | 0.000136 ± 4.5e-05 s⁻¹ |  |  | 0.000145 ± 4.6e-05 s⁻¹
21 | C50G U57G G66U C70G | 0.000982 ± 0.0003 s⁻¹ | 0.000139 ± 4.9e-05 s⁻¹ |  | 
22 | C50U G51C | < 1e-05 s⁻¹ | < 1e-05 s⁻¹ |  | < 1e-05 s⁻¹
23 | C50U U55C U65C | < 1e-05 s⁻¹ |  |  | 
24 | G51A A53G | < 1e-05 s⁻¹ |  |  | 
25 | G51C C58U | < 1e-05 s⁻¹ |  | < 1e-05 s⁻¹ | < 1e-05 s⁻¹
26 | G51C G59A | < 1e-05 s⁻¹ | < 1e-05 s⁻¹ |  | < 1e-05 s⁻¹
27 | G51C G63C C68G | < 1e-05 s⁻¹ | < 1e-05 s⁻¹ |  | 
